# Results as given in PubChem BioAssay AID588855 (National Center for Advancing Translational Sciences (NCATS), 2011).
# Where “and” joins values, the source holds several entries; their conditions need not be identical. Equal entries are not always repeated. The campaign covered roughly 410,000 compounds. About 5,000 (1.2%) were called active. Inconclusive means that the source gave no clear call. Such entries were picked first, then a sample of the others. The call rests on the fitted dose curve; in most records, active means well fitted inhibition curve with a large enough effect; inconclusive means small, poorly fitted or top-dose-only effect; inactive means no such curve, though single readings can be large or run the other way. Where the call is inconclusive, the potency comes from a doubtful curve fit.
# Test: qHTS for Inhibitors of TGF-b; further: nearly all actives have a fitted effect of over 65% in size
# Conditions: HepG2 CAGA-GFP TGF-b/SMAD3 reporter, GFP fluorescence, 18 h, TGF-beta stimulated, 500 pg/mL final; series mostly up to 46.1 µM
# Procedure, shortened: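 TGF-beta reporter screen: HEPG2 CAGA-GFP, 1% FBS, 500 pg/mL TGF-beta final, 18 h; per-cell GFP summed per well; curves fitted and categorized by class.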
# Potency means the concentration at half of the fitted maximal effect; tags describe the fitted curve by direction and shape.
row,Compound,Potency
1,COc1cccc(CN(C)C(=O)c2ccc(COc3ccc(Cl)cc3)cc2)c1OC,"inconclusive: 35.5 µM [inhibitor, single point]"
2,COc1ccc(/C=N/NC(=O)CCC(=O)Nc2ccc(Br)cc2)c(OC)c1,"inconclusive: 35.5 µM [inhibitor, single point]"
3,CSc1ccccc1NC(=O)CN(C)C(=O)COc1cccc2cccnc12,"inconclusive: 7.94 µM [inhibitor, partial curve, poor fit]"
4,C=CCN1CC(c2nc3ccccc3n2Cc2cccc3ccccc23)CC1=O (centres undefined),"inconclusive: 20 µM [inhibitor, single point]"
5,O=C(O)c1cccc(NC(=S)NC(=O)c2ccc(-c3ccccc3)cc2)c1,inactive
6,O=C(NC1CC(=O)N(c2cccc(F)c2)C1)C1CCCC1 (centres undefined),inactive
7,CCOC(=O)CCNC(=O)CCc1nnc(CCCc2ccccc2)o1,inactive
8,COc1cc(-c2nc(Cn3nnc(C(=O)Nc4ccccc4)c3C)c(C)o2)cc(OC)c1OC,inactive
9,Cc1ccc(CNC(=O)c2cccn2-c2nnc(N3CCCCC3)s2)cc1,active: 7.94 µM
10,COCCOCCOCCC(=O)NC1CC2CCC1(C)C2(C)C (centres undefined),"inconclusive: 31.6 µM [inhibitor, single point]"
11,CCOC(=O)c1sc(NC(=O)c2cc(-c3ccccc3)nc3ccccc23)c(C#N)c1C,"inconclusive: 2.24 µM [inhibitor, partial curve, poor fit]"
12,O=c1c2c([nH]c3ccccc13)CCCCCC2,inactive
13,Cc1ccccc1CN1C(=O)/C(=C\c2ccc(C(=O)NCCN3CCOCC3)cc2)Sc2ccccc21,"inconclusive: 35.5 µM [inhibitor, single point]"
14,O=C(NC(=S)Nc1ccccc1N1CCCC1)c1ccccc1[N+](=O)[O-],"inconclusive: 11.2 µM [inhibitor, single point]"
15,CCOC(=O)/C(=C\c1cccnc1)C(=O)c1cc(C(C)=O)c(Nc2ccccc2)s1,active: 2.82 µM
16,O=S(=O)(c1cccc(F)c1)N1CCN(c2nc(-c3cccnc3)nc3ccccc23)CC1,inactive
17,COc1ccc(-c2nc(C3CCCCC3)c3cc(OC)ccc3n2)cc1,inactive
18,CC(=O)c1cccc(NC(=O)C2(C)Cc3c(-c4cccc(C(F)(F)F)c4)ccnc3O2)c1 (centres undefined),"inconclusive: 25.1 µM [inhibitor, single point]"
19,O=S(=O)(NCc1ccc(F)cc1)c1ccc(-c2cnc(C3CC3)o2)cc1,"inconclusive: 398 nM [inhibitor, full curve, poor fit] and inconclusive: 7.94 µM [inhibitor, partial curve]"
20,Cc1nnc(NC(=O)CSCc2cc(=O)c3cc(Cl)ccc3[nH]2)s1,inactive
21,COc1ccccc1N1CC(C)(C)C(=O)N(C(=O)c2ccc(Cl)cc2)C1=S,"inconclusive: 25.1 µM [inhibitor, single point]"
22,COc1ccc(CCNC(=O)c2ccc3c(c2)c(C)c(C)n3Cc2ccc(F)cc2)c(OC)c1OC,inactive

row,Compound,Potency
1,CC(=O)c1ccc(NC(=S)NC(C)c2ccc(Cl)cc2Cl)cc1 (centres undefined),"inconclusive: 25.1 µM [inhibitor, partial curve, poor fit]"
2,COc1ccccc1N1CCN(C(=O)CCCNC(=O)Cn2cnc3sc(C)c(C)c3c2=O)CC1,inactive
3,Cc1ccc2nc(-c3ccccc3F)c(Nc3ccc(Cl)cc3)n2c1,"inconclusive: 14.1 µM [inhibitor, partial curve, poor fit]"
4,Cc1nc2ccccc2n1CC(O)Cn1c(C(F)(F)F)nc2ccccc21 (centres undefined),"inconclusive: 22.4 µM [inhibitor, single point]"
5,CCCCN(C)c1c(C)nc2ccc(C(=O)Nc3cc(-c4ccccc4)ccc3OC)cn12,"inconclusive: 12.6 µM [inhibitor, single point]"
6,CCOc1ccc(Nc2ccc(S(=O)(=O)N3CCOCC3)cc2[N+](=O)[O-])cc1,"inconclusive: 2.82 µM [inhibitor, single point]"
7,CCCc1nc2c(s1)CCc1onc(-c3ccc(OC)cc3)c1-2,"inconclusive: 5.01 µM [inhibitor, single point]"
8,O=C1C=C(c2ccc(-c3ccccc3)cc2)C[C@@H](c2ccc(Cl)cc2)C1,inactive
9,COc1ccc(-c2nc3c4ccccc4n(CC(=O)N4CCN(c5ccccc5OC)CC4)c(=O)n3n2)cc1,inactive
10,C[C@@H]1COC(=O)[C@@H](CC(=O)OC(C)(C)C)C/C=C\C[C@@H](CC(=O)N[C@H](CO)Cc2ccccc2)C(=O)N1,inactive
11,CCN(CC)CCN(C(=O)c1ccc(S(=O)(=O)N(C)C2CCCCC2)cc1)c1nc2c(C)cccc2s1,"inconclusive: 0.708 µM [inhibitor, full curve, poor fit]"
12,Cc1nc2c(-c3ccccc3)c(C)[nH]n2c(=O)c1Cc1ccccc1,"inconclusive: 35.5 µM [inhibitor, single point]"
13,CCOC(=O)C1=NNC2C(=O)N(CC)C(=O)C12 (centres undefined),"inconclusive: 22.4 µM [inhibitor, single point]"
14,CCCSc1nnc(Sc2nnnn2-c2ccccc2)s1,"inconclusive: 14.1 µM [inhibitor, single point]"
15,O=C(COc1ccccc1)NC1CCN(Cc2ccccc2)CC1,inactive
16,C[C@@H]1CN([C@@H](C)CO)C(=O)c2cc(C#Cc3ccccc3)cnc2O[C@H]1CN(C)C(=O)c1ccccc1F,inactive
17,CCCCn1c(=O)c(-[n+]2ccccc2)c([O-])c2ccccc21,"inconclusive: 11.2 µM [inhibitor, partial curve]"
18,Cc1c(C(=O)N(Cc2nnc(-c3ccccc3Cl)o2)C2CC2)oc2ccccc12,inactive
19,O=C(O/N=C1/CCSc2ccccc21)c1ccccc1,"inconclusive: 0.562 µM [inhibitor, full curve, poor fit]"
20,COCCNC(=O)CCC(=O)N1Cc2cccc(OC)c2Oc2ncccc21,inactive
21,CCSc1nnc2c(n1)OC(c1ccc(C)cc1)N(C(C)=O)c1ccccc1-2 (centres undefined),inactive
22,COc1ccccc1OCC(=O)NNC(=S)NC(=O)c1ccco1,"inconclusive: 5.01 µM [inhibitor, single point]"
